PMC12040169 (PLOS Biology, 2025)
The other results are listed elsewhere or left out.

tested on: T1, C. trachomatis L2/434/Bu expressing GFP (CTL2-GFP); parameters: species or system HeLa; C. trachomatis total inclusion area by high-content imaging, normalised to DMSO; conditions: total inclusion area; 28.5 h, 10 µM; inhibitor
T1 construct: L2/434/Bu GFP intracellular growth in HeLa cells
Outline: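 Imaging read-out: GFP inclusions and Hoechst nuclei captured by high-content imaging after fixation. Inclusion area/number = chlamydial growth; nuclei count = host cell viability. MIC calculated per earlier method.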

Structure (SMILES) | % of control remaining
CCc1ccc2c(c1)C(=O)CC1(CCN(C(=O)c3cc(OC)c(C)c(OC)c3)CC1)O2 [CBK168098] | 83.6678
CC1(C)SC(c2ccc(F)cc2)N[C@H]1C(=O)O (some centres unmarked) [CBK025917] | 105.961
CC(=O)c1cc2c(N)c(/C(N)=N/C#N)sc2nc1C [CBK021202] | 70.541
O=C(O)c1cccc(-c2ccc(/C=N/Nc3ccc([N+](=O)[O-])cn3)o2)c1 [CBK263196] | 58.9753
COc1ccc(NC(=O)C(=O)N/N=C/c2ccc(C(=O)O)cc2)cc1 [CBK262255] | 102.083
COc1ccccc1NS(=O)(=O)c1ccc2c(c1)C1C=CCC1C(c1ccc(C(=O)O)cc1)N2 (centres unmarked) [CBK268903] | 54.9822
NC(=O)c1cccc(-c2nc(-c3cc4ccccc4o3)cnc2N)c1 [CBK063996] | 100.406
COC(=O)Nc1cc2sccc2nc1C(F)(F)F [CBK019229] | 102.109
NC(=O)c1cccnc1N1CCNCC1 [CBK025310C] | 74.8591
CCOC(=O)c1cnc(SC)nc1NCCc1c[nH]c2cc(F)ccc12 [CBK092315] | 79.0368
O=Cc1ccc(-c2nccnc2NS(=O)(=O)c2ccccc2)cc1 [CBK073845] | 99.0166
Cc1ccc(O)c(CN[C@@H]2CCC(=O)N[C@H]2c2cc(F)cc(F)c2)c1 [CBK283132] | 89.6953
CC(c1ccccc1)n1c(S)nnc1-c1cc(C(C)(C)C)n[nH]1 (centres unmarked) [CBK268954] | 92.5584
OC1(c2ccc(F)cc2)CCC2CN(CC3CC3)CC21 (centres unmarked) [CBK283105] | 82.8723
Cc1ccc(C(=O)N2CCN(Cc3cc(=O)n4ccsc4n3)CC2)cn1 [CBK305700] | 89.5547
Cc1ccc(F)c(OC2(C(=O)O)CCN(Cc3ncc[nH]3)CC2)c1 [CBK307062] | 82.1093
C=CCNC(=O)N[C@H]1CCN2C(=O)c3ccc(Cl)cc3NC(=O)[C@@H]2C1 [CBK289569] | 88.3897
CN(C(=O)COC(=O)c1cc(-c2ccco2)nc2ccccc12)C1(C#N)CCCCC1 [CBK295591] | 114.712
CCN1C(=O)C2(CC(=O)N(CC(=O)OC)C2=O)c2cc(Cl)ccc21 (centres unmarked) [CBK075234] | 156.534
COc1ccc([C@]23CN(C)C[C@H]2CCN(C(=O)c2cccc(Br)c2)C3)cc1OC [CBK075111T] | 81.9985
COC(=O)CN1CCCC[C@H]2CN(C(=O)Cc3ccsc3)C[C@H]21 [CBK285509] | 94.4568
CC(C)(N)CNC(=O)c1cnc2cc(Cl)ccc2c1O [CBK107360] | 97.5706
Cc1nc(CN2CCCC3(CCN(C(=O)c4cc(F)c(F)cc4F)C3)C2)cs1 (centres unmarked) [CBK132026] | 102.857
S=c1nccc(N2CCC(Cc3ccccc3)CC2)[nH]1 [CBK288361] | 61.2314
O=C1CC2(CCN(C(=O)C3CCCC3)CC2)Oc2ccc(F)cc21 [CBK283686] | 98.8712
CCC1CCCCN1C(=O)c1cc(C)nc(Cl)c1 (centres unmarked) [CBK076748] | 64.1875
Cc1cc(C)n(CCCNC(=O)c2ncoc2-c2ccc(F)cc2)n1 [CBK282357] | 19.9382

Structure (SMILES) | % of control remaining
Cc1cc(OCc2nnc(SCC(=O)Nc3ccc(I)cc3)n2C)ccc1Cl [CBK268600] | 96.0022
CC(=O)N1CCN(c2ccc(OCCO)cc2)CC1 [CBK001978] | 95.6984
Nc1nnc(SCC(=O)NC23CC4CC(CC(C4)C2)C3)s1 [CBK267417] | 115.788
O=C(Cc1ccccn1)N1CCC(c2cccc(Cc3ccc(C(F)(F)F)cc3)n2)CC1 [CBK286224] | 77.3273
CCCNC(=O)CN1C(=O)N2CCCN=C2c2ccc(Cl)cc21 [CBK284389] | 95.8872
Cc1ccc(C(=O)NC2CCN(C(=O)Nc3cc(Cl)ccc3F)CC2)s1 [CBK305243] | 80.1903
Cc1ccc(Cl)c(N2CCN(CCCn3c(=S)[nH]c4ccccc4c3=O)CC2)c1 [CBK268011] | 93.9958
CCc1nc2ccc(C(=O)NCCN3CCCC3)cn2c1N(C)C(=O)c1ccncc1 [CBK146655] | 122.295
COc1ccc(CN2/C(=N/c3ccccc3)S[C@H]3[C@@H]2[C@@H](O)[C@H](O)C[C@@H]3C(N)=O)cc1 [CBK288941] | 119.382
COc1cncc(-c2cnc(N)c(N[C@@H](CO)C(C)C)n2)c1 [CBK063734] | 69.0861
O=C(O)c1ccc(NC(=O)c2nccnc2C(=O)O)cc1 [CBK260916] | 107.285
Fc1ccccc1CN1CCC(Oc2nccnc2OCc2cccnc2)CC1 [CBK083157T] | 86.3499
COC(=O)c1cccc(CCC2CC(=O)C=C(O)C2)c1 (centres unmarked) [CBK012720] | 79.7172
CS(=O)(=O)Nc1nccnc1OC1CCN(CCc2ccccn2)CC1 [CBK084286] | 75.9903
CC(C)(C)c1cc(CC2(NCc3ccco3)COC2)no1 [CBK289642] | 124.453
COCC1CCCN(Cc2ccc(Br)cc2)C1 (centres unmarked) [CBK304624] | 63.7807
Clc1ccc(CNC2CCCCC2NCc2ccc(Cl)nc2)cn1 (centres unmarked) [CBK025983] | 69.8159
COCc1cccc(-c2ccc(C(=O)N(C)CCN(C)C)c(N(C)C)n2)c1 [CBK106091] | 96.0271
CC(=O)c1c(C)nn(C(C)CC(=O)Nc2ccc(Cl)c(Cl)c2)c1C (centres unmarked) [CBK270021] | 77.7681
O=C(CC1OCCc2ccsc21)N1CCCC(n2cccn2)C1 (centres unmarked) [CBK305154] | 103.415
O=C(O)c1ccc(CN2CC[C@H](c3nc4ccccc4o3)C2)cc1 [CBK289387] | 113.801
O=C(O)c1cc(S(=O)(=O)NCCCN2CCOCC2)ccc1Cl [CBK299804] | 81.4357
Cc1cc2c(cc1C)NC(CC(=O)Nc1cccc(Br)c1)C(=O)N2 (centres unmarked) [CBK269548] | 69.9439
COc1ccc(OC)c(NC(=O)c2ccccc2C(=O)O)c1 [CBK287082] | 116.973
COc1ccccc1-c1nccnc1OCCc1ccc(NC(C)=O)cc1 [CBK106815] | 94.1265
Cc1c(C(=O)N2CCCCC2C(N)=O)nnn1-c1cccc(Cl)c1 (centres unmarked) [CBK305490] | 98.1815
COc1ccc(CCN(Cc2ccc(Cl)c(Cl)c2)C(=O)Nc2cccnc2)cc1OC [CBK158797] | 81.8961

Structure (SMILES) | % of control remaining
O=C(O)C1CCCCC1C(=O)Nc1ccc(S(=O)(=O)N2CCCCC2)cc1 (centres unmarked) [CBK267950] | 92.315
O=C(c1ccco1)N1CCC(n2nc(C3CC3)ccc2=O)CC1 [CBK282350] | 80.0015
CC(=O)Nc1ccc(/C=N/NC(=O)c2nnn(-c3nonc3N)c2-c2ccccc2)cc1 [CBK262790] | 86.0371
COc1ccc(N2CCN(/C(=N/S(=O)(=O)c3ccccc3)Nc3nc(C)cc(C)n3)CC2)cc1 [CBK266750] | 83.3031
CC(Oc1ccccc1)C(=O)N1CCN(CCO)CC1 (centres unmarked) [CBK267428] | 96.6239
CC(C)N1C(=O)C2(CC(=O)N(CCCN3C(=O)c4ccccc4C3=O)C2=O)c2cc(F)ccc21 (centres unmarked) [CBK075969] | 98.1011
O=C(O)CCCn1cc(NC(=O)CCc2ccccc2)cn1 [CBK287055] | 82.663
CC(C)c1cc(C(=O)NCCN2CCc3ccccc32)n(C)n1 [CBK282685] | 93.2502
Cc1ccc(NC(=O)c2cnc3scc(C)n3c2=O)cc1 [CBK287454] | 89.6792
CCn1ncc(CN(C)C(=O)CCN2CCCCCC2=O)c1C [CBK306718] | 95.1163
Cc1ccccc1-c1ocnc1C(=O)NCc1ccco1 [CBK282408] | 110.957
CC(CC(=O)O)CC(=O)NNc1ncc(Cl)cc1Cl (centres unmarked) [CBK264398] | 100.117
Cn1c(N2CC[C@H](O)C2)nc2cc(C(=O)NC3CCCC3)ccc21 [CBK306779] | 95.4717
CC(=O)Nc1ccc(S(=O)(=O)N2CCN(S(=O)(=O)N(C)C)CC2)cc1 [CBK266545] | 119.421
O=C(Nc1ccc(Br)c2cccnc12)c1ccc(COc2ccccc2)cc1 [CBK266062] | 98.2607
CCC(CC(=O)NCc1c(C)n[nH]c1C)c1c[nH]c2ccccc12 (centres unmarked) [CBK282651] | 116.008
Nc1cccc(Sc2cccc(C(F)(F)F)n2)c1 [CBK115239] | 77.3544
Cc1ccc(NC(=O)N(C)C2CCN(C)C2)cc1 (centres unmarked) [CBK156023] | 47.1735
CN(CC(=O)Nc1ccc([N+](=O)[O-])cc1)S(=O)(=O)c1ccc2ccccc2c1 [CBK267422] | 91.6621
COCCOC(=O)N1CCC(C(=O)NC(c2ccc(Cl)cc2)c2cccs2)CC1 (centres unmarked) [CBK059702] | 87.4843
CC1=CC(C)C(CN2CC34C=CC(O3)C(C(=O)O)C4C2=O)C(C)C1 (centres unmarked) [CBK287005] | 110.937
OCc1ccc(-c2nccnc2NCc2ccccn2)cc1 [CBK037088] | 106.518
Fc1cccc(-c2nc3cnccn3c2NC2CCCC2)c1 [CBK283780] | 97.3406
Cc1ccc(CC(=O)N2CCC(Cc3ccccc3-c3ccccc3)(C(N)=O)CC2)cc1 [CBK285740] | 95.08
COc1ccc(/C(N)=N/OC(=O)C(C)Oc2ccc(C(C)(C)C)cc2)cc1OC (centres unmarked) [CBK267378] | 81.996
Cn1c(=O)oc2ccc(C(=O)Nc3cccc(-c4ccc(F)cc4)c3)cc21 [CBK286023] | 74.3088
